Among all 420,000 compounds or so, about 50,000 (12%) were called active. The shares of active, inactive and inconclusive entries below differ from those in the screen. The call rests on the fitted dose curve; in most records, active means well fitted inhibition curve with a large enough effect; inconclusive means small, poorly fitted or top-dose-only effect; inactive means flat fitted curve, though single readings scatter. No potency is given beside an inconclusive call; the fits are too rough.
Experiment: qHTS for Inhibitors of human tyrosyl-DNA phosphodiesterase 1 (TDP1): qHTS in cells in presence of CPT; further: nearly all actives have a fitted effect of over 55% in size
Conditions: chicken DT40 Tdp1-/-;hTDP1 cells + 20 nM CPT, ATP luminescence, 48 h; activity change, negative = growth inhibition: at 46.2 µM (top of the series) unless noted
Summary of the method: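 Chicken DT40 Tdp1-/- cells stably complemented with human TDP1 were seeded at 400 cells/well in medium containing 20 nM camptothecin, exposed to pin-transferred compounds, and grown at 37 °C for at least 48 hr. Viability was read as ATP luminescence.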
On the % scale 0 is the no-effect control and ±100 the full control effect; potency means the concentration at half of the fitted maximal effect; tags describe the fitted curve by direction and shape.

SMILES | Potency | activity change, negative = growth inhibition
COc1ccc(Nc2cc(Nc3ccccc3)ncn2)cc1 | inactive | –
CN(CC(=O)Nc1cccc(F)c1)C(=O)c1cccc(S(=O)(=O)N2CCN(c3ccccc3)CC2)c1 | inconclusive [inhibitor, single point] | –
COc1ccc(CNC(=O)Cc2ccc(NC(=O)N3CCCCc4ccccc43)cc2)cc1 | inconclusive [inhibitor, partial curve, poor fit] | –
O=C1Cc2c([nH]c3ccc([N+](=O)[O-])cc23)-c2ccccc2N1 | active: 1.84 µM | –
CCN(CC)c1ncnc2c1cnn2Cc1ccc(Cl)cc1 | active: 20.6 µM | –
CN(CC(=O)Nc1ccccc1F)CC(=O)Nc1ccccc1Br | inactive | –
Cc1ccc(S(=O)(=O)CCC(=O)Nc2ccccc2N2CCCC2)cc1 | inconclusive [inhibitor, single point] | –
CC(Oc1ccccc1F)C(=O)NCC1(N2CCOCC2)CCCCC1 (stereo not drawn) | inconclusive [inhibitor, single point] | –
CC1=CC(C)(C)N(C(=O)CN2C(=O)c3ccccc3C2=O)c2ccc(C)cc21 | inconclusive [inhibitor, partial curve, poor fit] | –
N#Cc1nc(Cc2cccc3ccccc23)oc1NCc1ccc2c(c1)OCO2 | inconclusive [inhibitor, single point] | –
Cc1ccc(NC(=S)N2CCN(C(=O)c3ccccc3)CC2)c(C)c1 | inconclusive [inhibitor, single point] | –
COc1ccc(CCNC(=O)c2ccc(-c3ccc([N+](=O)[O-])cc3Cl)o2)cc1 | inconclusive [inhibitor, partial curve] | –
COc1ccccc1C1=CC(=O)C[C@H](c2ccc(Cl)cc2)C1 | active: 14.6 µM | –
Cc1ccc(NC(=O)c2c(C)oc3ncnc(N4CCCCC4)c23)c(C)c1 | active: 18.4 µM | –
CCCSc1nnc2n(C)c(=O)c3c4c(sc3n12)CCC4 | inconclusive [inhibitor, single point] | –
C[C@H](CO)N1C[C@H](C)[C@@H](CN(C)C(=O)c2ccccc2)OCc2cn(nn2)CCCC1=O | inactive | –
Cc1ccc2cc3c(nc2c1)N(Cc1ccco1)CC3 | inconclusive [inhibitor, single point] | –
CC1(C(=O)NC2CCCCC2)CCC(=O)N1CCOc1ccccc1 (stereo not drawn) | inactive | –
O=C1NC[C@H](Cc2ccc(O)cc2)N(C[C@H]2CCCN2C[C@H](Cc2ccccc2)N2C[C@H](Cc3ccccc3)N(CCc3ccccc3)C(=O)C2=O)C1=O | inconclusive [inhibitor, single point] | –
COc1cc2c(cc1OC)-c1cc(OCc3ccccc3Cl)nc(=O)n1CC2 | inconclusive [inhibitor, single point] | –
O=C(CCCOc1ccc(Cl)cc1)N1CCCCC1 | – | inconclusive: -33.1% [inhibitor]
CCOC(=O)N1CCN(C(=O)Cn2nc(C)c3sc4ccccc4c3c2=O)CC1 | inconclusive [inhibitor, single point] | –

SMILES | Potency | activity change, negative = growth inhibition
COc1ccc(C2CC(c3ccccc3Cl)=NN2c2ccc(S(N)(=O)=O)cc2)cc1 (stereo not drawn) | inconclusive [inhibitor, single point] | –
Cc1ccc(C)c(Cn2nnc3c(=O)[nH]c(C4CCCN(C(=O)C5CCCCC5)C4)nc32)c1 (stereo not drawn) | inconclusive [inhibitor, single point] | –
CCCCCCCCNS(=O)(=O)CCNC1CC1 | inconclusive [inhibitor, single point] | –
O=C(c1ccccc1Cc1ccccc1)N1CCN(S(=O)(=O)c2ccccc2Br)CC1 | inconclusive [inhibitor, single point] | –
Cc1cc(-c2ccc(C)c(S(=O)(=O)NCC3CCN(Cc4cccc(F)c4)CC3)c2)on1 | inconclusive [inhibitor, single point] | –
Cc1oc2c(CN(C)C)c(O)ccc2c(=O)c1-c1ccc2ccccc2n1 | inconclusive [inhibitor, single point] | –
CC1=NN(c2ccccc2)C(=O)/C1=C\C=C1\N(C)c2ccccc2C1(C)C | inconclusive [inhibitor, partial curve] | –
Cc1ccc(C(=O)COC(=O)C2CC(=O)N(c3nc(-c4ccccc4)cs3)C2)cc1C (stereo not drawn) | inconclusive [inhibitor, single point] | –
COc1ccc(CNC(=O)C2CCN(c3nnc(C)c4c(C)n(-c5ccc(C)cc5)nc34)CC2)cc1 | inconclusive [inhibitor, single point] | –
CNC(=O)c1c(NC(=O)CCS(=O)(=O)c2ccccc2)sc(C)c1C | inconclusive [inhibitor, single point] | –
COc1ccc(-c2coc3c(C(=O)Nc4cccc(C(C)=O)c4)cccc23)c(C)c1 | active: 18.4 µM | –
COc1ccc(C(=O)N2CC(=O)Nc3ccc(F)cc3C2c2ccccc2)cc1 (stereo not drawn) | inactive | –
O=C(NC(=Nc1nc2ccccc2o1)NC(=O)c1ccccc1)c1ccccc1 | inactive | –
Cc1ccccc1NC(=O)C1CCN(S(=O)(=O)c2cccc3nonc23)CC1 | inactive | –
CCCCC1OC23CCCCC2C(C#N)(C#N)C1(C#N)C(=N)O3 (stereo not drawn) | active: 6.51 µM | –
COc1ccc(OC)c(-c2cc(C(=O)NCc3ccc(Cl)cc3)no2)c1 | inconclusive [inhibitor, full curve, poor fit] | –
Cc1ccc(-c2nn3c(C)nnc3c3ccccc23)cc1S(=O)(=O)NC(C)(C)CO | inconclusive [inhibitor, single point] | –
Cc1c(C(=O)Nc2ccc(C(=O)Nc3ccccc3)cc2)cccc1[N+](=O)[O-] | inactive | –
COc1cccc(CNC(=O)Nc2ccc3c(c2)N(C)C(=O)c2ccccc2S3)c1 | active: 23.1 µM | –
O=C(Nc1ccccc1N1CCCC1)c1ccco1 | inconclusive [inhibitor, single point] | –
CCOc1ccc(N(C)S(=O)(=O)c2cc(-c3cnc(C)o3)ccc2OC)cc1 | active: 25.9 µM | –
